Source: a collection of fitness landscapes (doi:10.1016/j.celrep.2020.107928)
The full ranking holds about 81,000 sequences; the median of “one-hybrid fitness for binding parS DNA” is about -0.17, and the highest 2% start at about 0.51. The list shows a part of the results.

B1: Caulobacter ParB omega fusion; a variant is named by its letters at X, in order, B8GW30 (parent)
chain: MESVVVGEPGMSEGRRGLGRGLSALLGEVDAAPAQAPGEQLGGSREAPIEILQRNPDQPRRTFREEDLEDLSNSIREKGVLQPILVRPSPDTAGEYQIVAGERAWRAAQRAGLKTVPIMVRELDDLAVLEIGIIENVQRADLNVLEEALSYKVLMEKFERTQENIAQTIGKSXSHVANXMRLLXLPDEVQSYLVSGELTAXHARAIAAAADPVALAKQIIEGGLSVRETEALARKAPNLSAGKSKGGRPPRVKDTDTQALESDLSSVLGLDVSIDHRGSTGTLTITYATLEQLDDLCNRLTRGI

Variants of: B1
Experiment: one-hybrid fitness for binding parS DNA (scaled: cognate 1, non-cognate 0); higher = stronger binding
Settings: with parS DNA site
How it was run: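 Caulobacter ParB libraries with four specificity codons randomised were screened by bacterial one-hybrid selection in the E. coli USO strain, using a HIS3 reporter whose site lies 19 bp from the promoter. Selection ran for 48 hours at 37°C on M9 lacking histidine, with 0.1 mM IPTG and 5 mM 3-AT. Plasmids were Illumina-sequenced before and after selection, three replicate libraries were pooled, and variants with under 10 reads were dropped. Fitness is the log change in each variant's read ratio to wild type, rescaled against the cognate and non-cognate sites.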
For VMYL, the “one-hybrid fitness for binding parS DNA” value was at most 0.2.
With PFEC the “one-hybrid fitness for binding parS DNA” value was at most 0.2.
With QMED the “one-hybrid fitness for binding parS DNA” value was at most 0.2.
For RQKP, the “one-hybrid fitness for binding parS DNA” value was at most 0.2.
With QWGT the “one-hybrid fitness for binding parS DNA” value was at most 0.2.
In the case of ETSS, the “one-hybrid fitness for binding parS DNA” value is reported as at most 0.2.
IFGS was tested, and the “one-hybrid fitness for binding parS DNA” value was at most 0.2.
With CRAY the “one-hybrid fitness for binding parS DNA” value was at most 0.2.
WTDG was tested, and the “one-hybrid fitness for binding parS DNA” value was at most 0.2.
For RKSG, the “one-hybrid fitness for binding parS DNA” value was 0.928.
With RTRY the “one-hybrid fitness for binding parS DNA” value was 0.828.
In the case of PSGG, the “one-hybrid fitness for binding parS DNA” value is reported as at most 0.2.
For QNVV, the “one-hybrid fitness for binding parS DNA” value was at most 0.2.
For QMVF, the “one-hybrid fitness for binding parS DNA” value was at most 0.2.
For VVRY, the “one-hybrid fitness for binding parS DNA” value was at most 0.2.
In the case of VGTG, the “one-hybrid fitness for binding parS DNA” value is reported as at most 0.2.
For GPED, the “one-hybrid fitness for binding parS DNA” value was at most 0.2.
With PTCC the “one-hybrid fitness for binding parS DNA” value was at most 0.2.
For SDPR, the “one-hybrid fitness for binding parS DNA” value was at most 0.2.
IYQL was tested, and the “one-hybrid fitness for binding parS DNA” value was at most 0.2.
With NWYS the “one-hybrid fitness for binding parS DNA” value was at most 0.2.
CMHF was tested, and the “one-hybrid fitness for binding parS DNA” value was at most 0.2.
With LDIW the “one-hybrid fitness for binding parS DNA” value was at most 0.2.
For RVMQ, the “one-hybrid fitness for binding parS DNA” value was at most 0.2.
With CIVC the “one-hybrid fitness for binding parS DNA” value was at most 0.2.
With QLRY the “one-hybrid fitness for binding parS DNA” value was at most 0.2.
For WADL, the “one-hybrid fitness for binding parS DNA” value was at most 0.2.
For EVVT, the “one-hybrid fitness for binding parS DNA” value was at most 0.2.
In the case of PVMQ, the “one-hybrid fitness for binding parS DNA” value is reported as at most 0.2.
GGSW was tested, and the “one-hybrid fitness for binding parS DNA” value was at most 0.2.
With QWPD the “one-hybrid fitness for binding parS DNA” value was at most 0.2.
For LVDM, the “one-hybrid fitness for binding parS DNA” value was at most 0.2.
In the case of WRLS, the “one-hybrid fitness for binding parS DNA” value is reported as at most 0.2.
For IRSQ, the “one-hybrid fitness for binding parS DNA” value was at most 0.2.
For HNMS, the “one-hybrid fitness for binding parS DNA” value was at most 0.2.
For LVTN, the “one-hybrid fitness for binding parS DNA” value was at most 0.2.
In the case of HMTR, the “one-hybrid fitness for binding parS DNA” value is reported as at most 0.2.
RWAP was tested, and the “one-hybrid fitness for binding parS DNA” value was at most 0.2.
In the case of PITM, the “one-hybrid fitness for binding parS DNA” value is reported as at most 0.2.
With WSRM the “one-hybrid fitness for binding parS DNA” value was at most 0.2.
For FNRC, the “one-hybrid fitness for binding parS DNA” value was at most 0.2.
GMTC was tested, and the “one-hybrid fitness for binding parS DNA” value was at most 0.2.
With NKNA the “one-hybrid fitness for binding parS DNA” value was at most 0.2.
With MHKM the “one-hybrid fitness for binding parS DNA” value was at most 0.2.
With GKLA the “one-hybrid fitness for binding parS DNA” value was at most 0.2.
In the case of MSSG, the “one-hybrid fitness for binding parS DNA” value is reported as at most 0.2.
For SPQN, the “one-hybrid fitness for binding parS DNA” value was at most 0.2.
HMPV was tested, and the “one-hybrid fitness for binding parS DNA” value was at most 0.2.
With GWSD the “one-hybrid fitness for binding parS DNA” value was at most 0.2.
In the case of ESNR, the “one-hybrid fitness for binding parS DNA” value is reported as at most 0.2.
For LVRN, the “one-hybrid fitness for binding parS DNA” value was at most 0.2.
For QGTM, the “one-hybrid fitness for binding parS DNA” value was at most 0.2.
IRTL was tested, and the “one-hybrid fitness for binding parS DNA” value was at most 0.2.
In the case of DYSK, the “one-hybrid fitness for binding parS DNA” value is reported as at most 0.2.
LPKC was tested, and the “one-hybrid fitness for binding parS DNA” value was at most 0.2.
CLLT was tested, and the “one-hybrid fitness for binding parS DNA” value was at most 0.2.
With RFFP the “one-hybrid fitness for binding parS DNA” value was at most 0.2.
With LWLV the “one-hybrid fitness for binding parS DNA” value was at most 0.2.
TQSW was tested, and the “one-hybrid fitness for binding parS DNA” value was at most 0.2.
For TFAN, the “one-hybrid fitness for binding parS DNA” value was at most 0.2.
With AWER the “one-hybrid fitness for binding parS DNA” value was at most 0.2.
In the case of AGVR, the “one-hybrid fitness for binding parS DNA” value is reported as at most 0.2.
In the case of QEMS, the “one-hybrid fitness for binding parS DNA” value is reported as at most 0.2.
CQSR was tested, and the “one-hybrid fitness for binding parS DNA” value was at most 0.2.
PVIA was tested, and the “one-hybrid fitness for binding parS DNA” value was at most 0.2.
PFLV was tested, and the “one-hybrid fitness for binding parS DNA” value was at most 0.2.
RNLN was tested, and the “one-hybrid fitness for binding parS DNA” value was 0.251.
MLLL was tested, and the “one-hybrid fitness for binding parS DNA” value was at most 0.2.
For TPNY, the “one-hybrid fitness for binding parS DNA” value was at most 0.2.
For YIGD, the “one-hybrid fitness for binding parS DNA” value was at most 0.2.
NSSY was tested, and the “one-hybrid fitness for binding parS DNA” value was at most 0.2.
With TIRK the “one-hybrid fitness for binding parS DNA” value was at most 0.2.
For GGER, the “one-hybrid fitness for binding parS DNA” value was at most 0.2.
In the case of RMHM, the “one-hybrid fitness for binding parS DNA” value is reported as 0.374.
With QDHS the “one-hybrid fitness for binding parS DNA” value was at most 0.2.
In the case of LAIT, the “one-hybrid fitness for binding parS DNA” value is reported as at most 0.2.
For WRMG, the “one-hybrid fitness for binding parS DNA” value was at most 0.2.
In the case of CGEE, the “one-hybrid fitness for binding parS DNA” value is reported as at most 0.2.
With DARA the “one-hybrid fitness for binding parS DNA” value was at most 0.2.
For IYWI, the “one-hybrid fitness for binding parS DNA” value was at most 0.2.
In the case of PYRH, the “one-hybrid fitness for binding parS DNA” value is reported as at most 0.2.
For SKSL, the “one-hybrid fitness for binding parS DNA” value was at most 0.2.
RWSG was tested, and the “one-hybrid fitness for binding parS DNA” value was 0.769.
With SGGG the “one-hybrid fitness for binding parS DNA” value was at most 0.2.
With RWVC the “one-hybrid fitness for binding parS DNA” value was 0.544.
In the case of FVST, the “one-hybrid fitness for binding parS DNA” value is reported as at most 0.2.
With HHSY the “one-hybrid fitness for binding parS DNA” value was at most 0.2.
With TRLC the “one-hybrid fitness for binding parS DNA” value was at most 0.2.
For LWPF, the “one-hybrid fitness for binding parS DNA” value was at most 0.2.
For SGPY, the “one-hybrid fitness for binding parS DNA” value was at most 0.2.
With LLEF the “one-hybrid fitness for binding parS DNA” value was at most 0.2.
With EVTW the “one-hybrid fitness for binding parS DNA” value was at most 0.2.
With SLFC the “one-hybrid fitness for binding parS DNA” value was at most 0.2.
For RSVG, the “one-hybrid fitness for binding parS DNA” value was 0.89.
TTLD was tested, and the “one-hybrid fitness for binding parS DNA” value was at most 0.2.
With SPIL the “one-hybrid fitness for binding parS DNA” value was at most 0.2.
With NKRS the “one-hybrid fitness for binding parS DNA” value was at most 0.2.
For HCGC, the “one-hybrid fitness for binding parS DNA” value was at most 0.2.
QACD was tested, and the “one-hybrid fitness for binding parS DNA” value was at most 0.2.
IQCR was tested, and the “one-hybrid fitness for binding parS DNA” value was at most 0.2.
For VEER, the “one-hybrid fitness for binding parS DNA” value was at most 0.2.
In the case of HNTY, the “one-hybrid fitness for binding parS DNA” value is reported as at most 0.2.
GIRE was tested, and the “one-hybrid fitness for binding parS DNA” value was at most 0.2.
With DTLR the “one-hybrid fitness for binding parS DNA” value was at most 0.2.
With RMSM the “one-hybrid fitness for binding parS DNA” value was 0.37.
In the case of DPLC, the “one-hybrid fitness for binding parS DNA” value is reported as at most 0.2.
In the case of GMLK, the “one-hybrid fitness for binding parS DNA” value is reported as at most 0.2.
For EGKT, the “one-hybrid fitness for binding parS DNA” value was at most 0.2.
In the case of SVNT, the “one-hybrid fitness for binding parS DNA” value is reported as at most 0.2.
For ECST, the “one-hybrid fitness for binding parS DNA” value was at most 0.2.
In the case of RYMW, the “one-hybrid fitness for binding parS DNA” value is reported as at most 0.2.
In the case of RRGW, the “one-hybrid fitness for binding parS DNA” value is reported as at most 0.2.
With HIPG the “one-hybrid fitness for binding parS DNA” value was at most 0.2.
In the case of AQHR, the “one-hybrid fitness for binding parS DNA” value is reported as at most 0.2.
In the case of REKF, the “one-hybrid fitness for binding parS DNA” value is reported as at most 0.2.
With MCTV the “one-hybrid fitness for binding parS DNA” value was at most 0.2.
For VCMR, the “one-hybrid fitness for binding parS DNA” value was at most 0.2.
For DSAS, the “one-hybrid fitness for binding parS DNA” value was at most 0.2.
For TLYT, the “one-hybrid fitness for binding parS DNA” value was at most 0.2.
In the case of NEVP, the “one-hybrid fitness for binding parS DNA” value is reported as at most 0.2.
In the case of QASF, the “one-hybrid fitness for binding parS DNA” value is reported as at most 0.2.
In the case of LSNT, the “one-hybrid fitness for binding parS DNA” value is reported as at most 0.2.
For TLLM, the “one-hybrid fitness for binding parS DNA” value was at most 0.2.
In the case of PFDT, the “one-hybrid fitness for binding parS DNA” value is reported as at most 0.2.
For SIKP, the “one-hybrid fitness for binding parS DNA” value was at most 0.2.
In the case of IHSN, the “one-hybrid fitness for binding parS DNA” value is reported as at most 0.2.
With WVWC the “one-hybrid fitness for binding parS DNA” value was at most 0.2.
With LVNR the “one-hybrid fitness for binding parS DNA” value was at most 0.2.
For LPQR, the “one-hybrid fitness for binding parS DNA” value was at most 0.2.
VVKQ was tested, and the “one-hybrid fitness for binding parS DNA” value was at most 0.2.
With HTWN the “one-hybrid fitness for binding parS DNA” value was at most 0.2.
RTCV was tested, and the “one-hybrid fitness for binding parS DNA” value was at most 0.2.
IQRR was tested, and the “one-hybrid fitness for binding parS DNA” value was at most 0.2.
For SKPP, the “one-hybrid fitness for binding parS DNA” value was at most 0.2.
For FHPP, the “one-hybrid fitness for binding parS DNA” value was at most 0.2.
For AQIR, the “one-hybrid fitness for binding parS DNA” value was at most 0.2.
In the case of EDKV, the “one-hybrid fitness for binding parS DNA” value is reported as at most 0.2.
For ASLG, the “one-hybrid fitness for binding parS DNA” value was at most 0.2.
With QPCI the “one-hybrid fitness for binding parS DNA” value was at most 0.2.
For YKKG, the “one-hybrid fitness for binding parS DNA” value was at most 0.2.
With SSQE the “one-hybrid fitness for binding parS DNA” value was at most 0.2.
For EKET, the “one-hybrid fitness for binding parS DNA” value was at most 0.2.
In the case of HCSS, the “one-hybrid fitness for binding parS DNA” value is reported as at most 0.2.
In the case of HHVD, the “one-hybrid fitness for binding parS DNA” value is reported as at most 0.2.
For RLFE, the “one-hybrid fitness for binding parS DNA” value was at most 0.2.
AAKT was tested, and the “one-hybrid fitness for binding parS DNA” value was at most 0.2.
In the case of ITRR, the “one-hybrid fitness for binding parS DNA” value is reported as at most 0.2.
YCHA was tested, and the “one-hybrid fitness for binding parS DNA” value was at most 0.2.
VGGF was tested, and the “one-hybrid fitness for binding parS DNA” value was at most 0.2.
For HSKS, the “one-hybrid fitness for binding parS DNA” value was at most 0.2.
AFFG was tested, and the “one-hybrid fitness for binding parS DNA” value was at most 0.2.
For YQLN, the “one-hybrid fitness for binding parS DNA” value was at most 0.2.
In the case of GVCW, the “one-hybrid fitness for binding parS DNA” value is reported as at most 0.2.
